# Assay results: the supplement of paper PMC8728848
# The full list was thinned out, with the strongest signals kept by preference.
# What was measured:
# Assay in all cases: glycan array binding signal (z-score within array); higher = stronger binding
# Details in all cases: glycan notation: IUPAC condensed, linker removed
# [1] = system: GlcNAc(b1-3)Gal(b1-3)GalNAc
# How it was run: (§1)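 Glycan array data were curated from 3228 arrays in the Consortium for Functional Glycomics database and kept only where the protein sequence was available. Glycan names were converted to IUPAC-condensed notation, and columns mapping to the same glycan were averaged. The binding signal is a within-array Z-score, averaged across arrays of the same protein sequence at different concentrations or buffers and across linkers. Negative Z-scores can be read as non-binding.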
# [2] = system: GlcNAc(b1-2)Man(a1-3)[GlcNAc(b1-2)Man(a1-6)]Man(b1-4)GlcNAc(b1-4)GlcNAc
# How it was run: as §1
# [3] = system: GlcNAc(b1-3)Gal(b1-4)GlcNAc(b1-3)Gal(b1-4)GlcNAc(b1-2)Man(a1-3)[GlcNAc(b1-3)Gal(b1-4)GlcNAc(b1-3)Gal(b1-4)GlcNAc(b1-2)Man(a1-6)]Man(b1-4)GlcNAc(b1-4)[Fuc(a1-6)]GlcNAc
# How it was run: as §1
# [4] = system: GlcNAc(b1-3)Gal(b1-4)GlcNAc(b1-3)Gal(b1-4)GlcNAc(b1-2)[GlcNAc(b1-3)Gal(b1-4)GlcNAc(b1-3)Gal(b1-4)GlcNAc(b1-6)]Man(a1-6)[GlcNAc(b1-3)Gal(b1-4)GlcNAc(b1-3)Gal(b1-4)GlcNAc(b1-2)Man(a1-3)]Man(b1-4)GlcNAc(b1-4)[Fuc(a1-6)]GlcNAc
# How it was run: as §1
# [5] = system: GlcNAc(b1-3)Gal(b1-4)GlcNAc(b1-3)Gal(b1-4)GlcNAc(b1-3)Gal(b1-4)GlcNAc(b1-2)Man(a1-3)[GlcNAc(b1-3)Gal(b1-4)GlcNAc(b1-3)Gal(b1-4)GlcNAc(b1-3)Gal(b1-4)GlcNAc(b1-2)Man(a1-6)]Man(b1-4)GlcNAc(b1-4)GlcNAc
# How it was run: as §1
# [6] = system: GlcNAc(b1-3)Gal(b1-4)GlcNAc(b1-3)Gal(b1-4)GlcNAc(b1-3)Gal(b1-4)GlcNAc(b1-2)Man(a1-3)[GlcNAc(b1-3)Gal(b1-4)GlcNAc(b1-3)Gal(b1-4)GlcNAc(b1-3)Gal(b1-4)GlcNAc(b1-2)Man(a1-6)]Man(b1-4)GlcNAc(b1-4)[Fuc(a1-6)]GlcNAc
# How it was run: as §1
# [7] = system: GlcNAc(b1-3)Gal(b1-4)GlcNAc(b1-3)Gal(b1-4)GlcNAc(b1-3)Gal(b1-4)GlcNAc(b1-2)[GlcNAc(b1-3)Gal(b1-4)GlcNAc(b1-3)Gal(b1-4)GlcNAc(b1-3)Gal(b1-4)GlcNAc(b1-6)]Man(a1-6)[GlcNAc(b1-3)Gal(b1-4)GlcNAc(b1-3)Gal(b1-4)GlcNAc(b1-3)Gal(b1-4)GlcNAc(b1-2)Man(a1-3)]Man(b1-4)GlcNAc(b1-4)[Fuc(a1-6)]GlcNAc
# How it was run: as §1
# [8] = system: GlcNAc(b1-3)Gal(b1-4)GlcNAc(b1-2)[GlcNAc(b1-3)Gal(b1-4)GlcNAc(b1-6)]Man(a1-6)[GlcNAc(b1-3)Gal(b1-4)GlcNAc(b1-2)Man(a1-3)]Man(b1-4)GlcNAc(b1-4)GlcNAc
# How it was run: as §1
# [9] = system: GlcNAc(b1-2)Man(a1-3)[GlcNAc(b1-2)Man(a1-6)]Man(b1-4)GlcNAc(b1-4)[Fuc(a1-6)]GlcNAc
# How it was run: as §1
# [10] = system: GlcNAc(b1-2)[GlcNAc(b1-4)]Man(a1-3)[GlcNAc(b1-4)][GlcNAc(b1-2)Man(a1-6)]Man(b1-4)GlcNAc(b1-4)GlcNAc
# How it was run: as §1
substance,measurement,setting,value
M-Ficolin A256V (Homo sapiens) (chain not printed),glycan array binding signal (z-score),[1],-0.134
Meso764 (Homo sapiens) (chain not printed),glycan array binding signal (z-score),[2],-0.482
MBP (Homo sapiens) (chain not printed),glycan array binding signal (z-score),[1],0.338
same,glycan array binding signal (z-score),[3],5.2
same,glycan array binding signal (z-score),[4],5.33
same,glycan array binding signal (z-score),[5],5.17
same,glycan array binding signal (z-score),[6],6.78
same,glycan array binding signal (z-score),[7],5.42
FGF2 (chain not printed),glycan array binding signal (z-score),[8],1.39
same,glycan array binding signal (z-score),[5],-0.461
M-Ficolin (Homo sapiens) (chain not printed),glycan array binding signal (z-score),[9],-0.251
Gal 3 (Homo sapiens) (chain not printed),glycan array binding signal (z-score),[6],3.31
VWF (Homo sapiens) (chain not printed),glycan array binding signal (z-score),[1],-0.187
M-Ficolin G221F A256V (Homo sapiens) (chain not printed),glycan array binding signal (z-score),[2],-0.255
Gal 8-short (Homo sapiens) (chain not printed),glycan array binding signal (z-score),[1],1.59
Siglec-2 (Homo sapiens) (chain not printed),glycan array binding signal (z-score),[9],-0.015
Thrombomodulin Extracellular (Homo sapiens) (chain not printed),glycan array binding signal (z-score),[2],-0.338
same,glycan array binding signal (z-score),[10],1.9
same,glycan array binding signal (z-score),[6],-0.079
L-Ficolin (Homo sapiens) (chain not printed),glycan array binding signal (z-score),[2],-0.577
NCAM1 (Homo sapiens) (chain not printed),glycan array binding signal (z-score),[9],0.202
M-Ficolin G221F (Homo sapiens) (chain not printed),glycan array binding signal (z-score),[9],-0.17
